This is an account of results in ChEMBL document CHEMBL4888484, “Replenishing the malaria drug discovery pipeline: Screening and hit evaluation of the MMV Hit Generation Library 1 (HGL1) against asexual blood stage Plasmodium falciparum ,using a nano luciferase reporter read-out” (2022).

In all, about 150,000 compounds went through this assay and about 540 (0.36%) showed an effect of 50% or more. The list shows a part of the results.

The experiment concerns Plasmodium falciparum. Kind of experiment: Primary screen in NF54 nanoGlo assay, in single point, at 2uM, 72h; a lower Z score goes with more inhibition. To be noted: timepoint 72 hour. In kind it is functional, Erythrocyte.
Broadly, the % Inhibition is the change of the read-out against control, counted positive when it falls. With `O=C1C[C@@H](c2cccc(Br)c2)c2c(O)nc(N3CCOCC3)nc2N1`, the “% Inhibition” value is 30% and the Z score is -4.36.

For the compound `CCc1cc(CNC(=O)[C@]2(CC)CCCN2)on1`, the “% Inhibition” value is listed as 7% and the Z score is given as -1.01.

For `COc1ccc(-c2ccc3c(c2)C[C@H](CN)O3)nn1`, the “% Inhibition” value was 1% and the Z score is recorded as -0.19.

With `O=C(CC1(N2Cc3ccccc3C2=O)CCCCC1)N1CCN(Cc2ccc3c(c2)OCO3)CC1`, the “% Inhibition” value is recorded as -13% and the Z score is on record as 1.67.

As to `Cc1cc(C)nc(CCNC(=O)NC[C@@H](O)Cc2ccccc2)n1`, the “% Inhibition” value was -7% and the Z score stood at 1.14.

Turning to `COc1cccc(CN2CCC[C@@]3(CCN(c4cncc(C(N)=O)n4)C3)C2=O)c1OC`, the “% Inhibition” value came to 7% and the Z score is -1.29.

Regarding `Nc1nnc(N2CCN(C3CCCCC3)CC2)s1`, the “% Inhibition” value is reported as -4% and the Z score was 0.48.

For `COc1cc(C(=O)NCCc2ccc(F)cc2)ncn1`, the “% Inhibition” value is 7% and the Z score is -1.23.

As to `Cc1cc(C(F)F)oc1C(=O)N[C@@H](C)c1ccc[nH]1`, the “% Inhibition” value is reported as -4% and the Z score amounted to 0.61.

With `COCCOc1cnc(-c2noc([C@@H]3COc4cc(F)ccc4C3)n2)cn1`, the “% Inhibition” value was -11% and the Z score came out at 1.21.

As for `NC(=O)Nc1ccc(COC2CCCC2)cc1`, the “% Inhibition” value worked out at 25% and the Z score was -2.87.

For `Cc1onc(N)c1S(=O)(=O)NC(=O)C1CC12CCCc1ccccc12` (stereo not drawn), the “% Inhibition” value is -5% and the Z score is listed as 0.66.

`Fc1cc(F)cc(CNc2nnc(-c3ccon3)s2)c1`: the “% Inhibition” value is recorded as -11% and the Z score is reported as 1.4.

As to `O=C1N(C2CCCCC2)C[C@H]2CN(Cc3cccc(Cl)c3)CCN12`, the “% Inhibition” value was found to be 15% and the Z score is listed as -1.71.

Regarding `O=C(Nc1cccc2c1CCCC2)C1CC(=O)N(C2CCS(=O)(=O)C2)C1` (stereo not drawn), the “% Inhibition” value is reported as -8% and the Z score is 1.6.

Consider `O=C1CNc2cc(NS(=O)(=O)N3CCCCC3)ccc2O1`, for which the “% Inhibition” value is reported as -17% and the Z score was found to be 1.59.

On to `C=CCC[C@@H](CN(C)Cc1cccnc1)Oc1cc(CC)ncn1`, for which the “% Inhibition” value is -4% and the Z score is given as 0.62.

For `FC(F)c1cc(-c2ccc(Cl)cc2)nc(NCCc2ccccc2)n1`, the “% Inhibition” value is recorded as -4% and the Z score is 0.67.

Regarding `Cc1cc(C)cc(CN2CCN(Cc3c[nH]cn3)[C@@H]3CS(=O)(=O)C[C@@H]32)c1`, the “% Inhibition” value is recorded as -5% and the Z score is 0.58.

Take `COCC1(CNC(=O)[C@H](C)c2ccc(OC)cc2)CCN(C(=O)OC(C)(C)C)CC1`: the “% Inhibition” value is on record as -17% and the Z score was found to be 3.

Turning to `O=C(NC[C@H]1CCCO1)C1CCN(S(=O)(=O)c2ccc3c(c2)CCC3)CC1`, the “% Inhibition” value stood at 9% and the Z score is recorded as -1.69.

With `CC(=O)NCCc1nc(Cn2cncn2)nn1-c1ccccc1`, the “% Inhibition” value was found to be 2% and the Z score was -0.4.

As to `CCC(=O)N1c2ccc(S(=O)(=O)N3CCCCC3)cc2C[C@H]1C(=O)NCc1ccc(C)o1`, the “% Inhibition” value is given as -7% and the Z score amounted to 0.95.

`CC(=O)N1CC(OCC(=O)N(Cc2cccnc2)c2ccc(Cl)cc2)C1`: the “% Inhibition” value was -1% and the Z score is 0.09.

Take `CC[C@@H](CCNc1ncccc1F)N1CCCC1=O`: the “% Inhibition” value is -18% and the Z score turned out to be 1.81.

Consider `COc1ccc(CCNC(=O)N2CCC(Oc3nc4c(F)cccc4s3)CC2)cc1`, for which the “% Inhibition” value is -18% and the Z score worked out at 2.62.

For the compound `COc1cc(N[C@H]2CCN(C)C2=O)nc(N)n1`, the “% Inhibition” value is given as -5% and the Z score is 0.65.

Turning to `Cc1nn(CCC#N)c(C)c1[C@@H]1C=C[C@@H](NC(=O)Nc2ccccc2)C1`, the “% Inhibition” value came to 25% and the Z score is on record as -2.81.

Turning to `O=C(C1CCCOC1)N1CCC(c2cccc(C(F)(F)F)c2)C1` (stereo not drawn), the “% Inhibition” value was -7% and the Z score is listed as 0.73.

With `C[C@H]1CN(c2nc3cc(S(N)(=O)=O)ccc3[nH]2)CC(=O)N1`, the “% Inhibition” value was -9% and the Z score is given as 1.71.

Consider `Cc1cc(OCC(=O)N(C)C)ccc1Cl`, for which the “% Inhibition” value is recorded as -8% and the Z score amounted to 1.05.

Take `COc1ccccc1[C@H](c1oc2ccccc2c1NC(=O)c1ccccc1)N1CCN(C)CC1`: the “% Inhibition” value is given as -15% and the Z score came to 2.37.

As to `O=C(NC1CCN(c2ccccc2C(=O)NCCN2CCCCC2)CC1)c1ccc(C(F)(F)F)cc1`, the “% Inhibition” value was -13% and the Z score is listed as 1.58.

Consider `Cc1cc(C2CCC2)nc(N2CCC(O)(CO)CC2)n1`, for which the “% Inhibition” value was -2% and the Z score was found to be 0.27.

Turning to `COCc1nc(CNC2Cc3ccccc3C2)no1`, the “% Inhibition” value is 1% and the Z score is on record as -0.11.

Take `O=C1Nc2cc(C(=O)N3CCN(c4ccccn4)CC3)ccc2N2CCCC[C@@H]12`: the “% Inhibition” value is -9% and the Z score is listed as 1.27.

For the compound `CCc1nc(C)c(C(=O)N(C)Cc2csc(-c3ccccc3)n2)s1`, the “% Inhibition” value is recorded as -4% and the Z score is 0.61.

With `Fc1cnc(NCC2(c3ccncc3)CC2)nc1`, the “% Inhibition” value was -15% and the Z score is reported as 1.73.

In the case of `COc1cccc(NC(=O)[C@@H]2CC(=O)Nc3nnc(-c4ccco4)n32)c1`, the “% Inhibition” value is given as -4% and the Z score turned out to be 0.49.

For `CC(C)(C)OC(=O)N1CCC[C@H]1C(=O)N1CCCCCCC1`, the “% Inhibition” value is recorded as -9% and the Z score worked out at 1.

As for `Cc1cc(CC(=O)N(Cc2csc(C)n2)c2ccc(F)cc2)no1`, the “% Inhibition” value is -16% and the Z score stood at 2.53.

Consider `Cc1cccc(-c2nocc2CCC(=O)NCc2cccs2)c1`, for which the “% Inhibition” value is -12% and the Z score was 1.59.

`CN1C(C(=O)N2CCN(C(=O)c3ccco3)CC2)=CC(c2ccco2)=NS1(=O)=O`: the “% Inhibition” value was -10% and the Z score amounted to 1.91.

As to `Cc1c(C(=O)N[C@@H](CC(N)=O)C2CCCCC2)cnn1C1CCCC1`, the “% Inhibition” value was -6% and the Z score amounted to 0.89.

In the case of `CC(C)N(C(=O)Cn1ccncc1=O)C(C)C`, the “% Inhibition” value is -10% and the Z score is listed as 1.46.

Turning to `O=C(c1nc2ncccn2n1)N1CCCO[C@@H](CN2CCCC2)C1`, the “% Inhibition” value was -6% and the Z score amounted to 0.5.

Consider `O=c1c2ccncc2ncn1CC1(O)CCCCC1`, for which the “% Inhibition” value is -2% and the Z score came out at 0.39.

Take `COCC1(C(=O)N(C)Cc2cc(-c3cccs3)n[nH]2)CCC1`: the “% Inhibition” value is reported as 1% and the Z score is -0.2.

Regarding `O=C(Nc1ccc2oc(-c3ccc4ccccc4c3)nc2c1)c1ccc(Cl)c(Cl)c1`, the “% Inhibition” value is -4% and the Z score amounted to 0.75.

In the case of `COc1cccc([C@H]2C[C@H](N(C)C(=O)c3ccc(C(=O)O)cc3)C2)c1`, the “% Inhibition” value is reported as -16% and the Z score was found to be 3.11.

With `COc1cccc(CC(=O)N2CCC(F)(C(=O)N3CCCC3)CC2)c1`, the “% Inhibition” value was found to be 4% and the Z score is reported as -0.77.

In the case of `COc1cc(C(=O)N2CC[C@H]3[C@H](CCC(=O)N3CCCO)C2)ccn1`, the “% Inhibition” value is listed as 1% and the Z score is listed as -0.12.

For the compound `Nc1nccnc1C(=O)Nc1ccc(OCC2CC2)cc1`, the “% Inhibition” value amounted to 2% and the Z score is on record as -0.34.

With `CN(C[C@H]1CCOC1)OCc1ccccc1`, the “% Inhibition” value is -6% and the Z score was found to be 0.89.
